According to patent US20180222996A1 (SCOTT AND WHITE HEALTHCARE SWH, published 2018):

What was measured:
[1] = target: T1, Human CD123 on stably transfected CHO-K1 cells (CHO-CD123) (human, UniProt P26951 19-378); assay: target cell binding, compared with 12F1
T1 construct: whole, on cells; also called IL-3 receptor alpha subunit; cell surface CD123
T1 sequence (looked up): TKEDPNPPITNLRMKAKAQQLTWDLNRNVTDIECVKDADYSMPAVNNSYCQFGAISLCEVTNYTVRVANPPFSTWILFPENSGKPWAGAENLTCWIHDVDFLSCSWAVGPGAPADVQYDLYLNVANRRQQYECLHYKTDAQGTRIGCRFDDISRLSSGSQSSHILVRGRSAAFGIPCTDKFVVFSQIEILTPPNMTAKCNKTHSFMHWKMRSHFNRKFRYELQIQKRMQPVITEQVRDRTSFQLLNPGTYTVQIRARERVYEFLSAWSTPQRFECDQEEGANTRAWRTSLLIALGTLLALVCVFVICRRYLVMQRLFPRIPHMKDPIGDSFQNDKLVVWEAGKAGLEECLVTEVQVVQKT
Procedure: One day prior to the experiment, 5×10⁴ CHO-K1 or CHO-CD123 cells were seeded in each well of a flat-bottom 96-well plate. The next day, cells were washed with PBS and fixed with 3% formaldehyde in PBS at room temperature for 10 minutes. Fixed cells were washed thrice with PBS containing 0.5% Tween-20 (PBST) and incubated in Blocking Solution (PBS with 10% goat serum) for 30 minutes. A titration of 12F1, 12F1scFv-Fc or CD123xCD3 BIf was then added at room temperature for 60 minutes, followed by washing with PBST and then 45 minutes incubation with HRP-conjugated anti-mouse or anti-human secondary antibodies (Jackson Lab) at room temperature. The HRP activity was detected by HRP substrate (R&D) for 10 minutes and stopped by 0.5N H₂SO₄. The plates were read by a plate reader set at 450 nm.
(§1) For antigen on monolayer cultured cells (CHO-CD123), cell-based enzyme-linked immunosorbent assay (CELISA, see above) was used to evaluate binding affinities (Kuo et al, 2009). […] For suspension cultured cells, flow cytometry was used to measure binding affinities.
The abilities of 12F1scFv-Fc and CD123xCD3 BIf to bind cell surface CD123 were examined by flow cytometry using CHO-K1 and CHO-CD123. 12F1 murine monoclonal antibody was used as a positive control. […] The binding affinities were tested in cell-based ELISA with CHO-CD123 cells.

CD3 on Jurkat T cells [2] = target: T2, CD3 on Jurkat T cells (UniProt P07766; P09693; P04234); assay: flow cytometry titration on Jurkat T cells, compared with UCHT1
T2 construct: whole, on cells; The assay used Jurkat T cells; also called T-cell surface CD3
Procedure: (§2) FIG. 3A-3C. T-cell surface binding of CD123xCD3 BIf. Binding of 1 μg/ml of (A) CD123xCD3 BIf; and (B) UCHT1 to Jurkat T cells was analyzed by flow cytometry with PE-conjugated secondary antibodies. The dotted histogram represented the reaction with human IgG1 control. The y-axis represented cell counts. (C) Serials titrations of UCHT1 (square) and CD123xCD3 BIf (triangle) were used in flow cytometric analysis with Jurkat T cells. The mean X-axis values were plotted versus protein concentrations for Kd analysis.
as §1
(§3) Jurkat T cells were used to test CD123xCD3 BIf's abilities to recruit T cells. […] This reduced T cell binding affinity would help to prevent non-specific T-cell activation.

CD3 on Jurkat T cells [3] = target: T2, CD3 on Jurkat T cells; assay: flow cytometry titration on Jurkat T cells; Kd = concentration at 50% of maximal mean X-axis value
Procedure: as §2, §1, §3

T2 sequence (P07766 23-207, chain 1 of 3): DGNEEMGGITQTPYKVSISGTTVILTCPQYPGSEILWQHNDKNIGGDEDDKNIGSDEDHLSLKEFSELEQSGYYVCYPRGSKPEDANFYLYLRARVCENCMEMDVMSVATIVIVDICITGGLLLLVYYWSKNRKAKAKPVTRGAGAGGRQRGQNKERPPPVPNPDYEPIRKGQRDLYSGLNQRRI
T2 sequence (P09693 23-182, chain 2 of 3, further chain): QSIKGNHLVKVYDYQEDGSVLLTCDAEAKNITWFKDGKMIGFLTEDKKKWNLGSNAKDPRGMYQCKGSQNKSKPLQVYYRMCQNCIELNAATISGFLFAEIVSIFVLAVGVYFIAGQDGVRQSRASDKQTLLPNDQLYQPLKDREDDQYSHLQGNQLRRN
T2 sequence (P04234 22-171, chain 3 of 3, further chain): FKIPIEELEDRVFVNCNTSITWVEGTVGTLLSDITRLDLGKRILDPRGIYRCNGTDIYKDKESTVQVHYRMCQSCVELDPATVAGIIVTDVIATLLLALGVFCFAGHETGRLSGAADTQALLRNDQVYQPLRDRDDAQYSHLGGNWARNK

- fold lower target cell binding affinity than parental antibody 12F1 [1]: ~5 times lower
- Kd relative to UCHT1 (CD3 on Jurkat T cells [2]): 2 orders (of magnitude) higher
- Kd (CD3 on Jurkat T cells [3]): 10 nM
B1: CD123xCD3 BIf (bispecific scFv immunofusion) (bispecific antibody)
chain: DIMMSQSPSSLAVSVGEKFTMTCKSSQSLFFGSTQKNYLAWYQQKPGQSPKLLIYWASTRESGVPDRFTGSGSGTDFTLAISSVMPEDLAVYYCQQYYNYPWTFGGGTKLEIKGSTSGSGKPGSGEGSTKGVQLQESGPGLVKPSQSLSLTCSVTDYSITSGYYWNWIRQFPGNKLEWMGYISYDGSNNYNPSLKNRISITRDTSKNQFFLKLSSVTTEDTATYYCSRGEGFYFDSWGQGTTLTVSSARS[letters of human IgG1 Fc left out]PWDIQMTQTTSSLSASLGDRVTISCRASQDIRNYLNWYQQKPDGTVKLLIYYTSRLHSGVPSKFSGSGSGTDYSLTISNLEQEDIATYFCQQGNTLPWTFAGGTKLEIKGSTSGSGKPGSGEGSTKGEVQLQQSGPELVKPGASMKISCKASGYSFTGYTMNWVKQSHGKNLEWMGLINPYKGVSTYNQKFKDKATFTVDKSSSTAYMELLSLTSEDSAVYYCARSGYYGDSDWYFDVWGAGTTVTVSS
notes: also called CD123xCD3 bispecific immunoglobulin
